Source: the supplement of paper PMC3334620
Whole data set: some 33,000 sequences, median “E-score (-0.5 to 0.5)” near -0.032, cut for the highest 2% near 0.36. Some of the results follow.

Each sequence was assayed against T1, Sko1 (UniProt Q02100) (assay: PBM E-score (8-mer binding enrichment) (E-score (-0.5 to 0.5)); higher = stronger / more preferred TF binding; most listed sequences are background and not binding sites). Conditions: protein concentration: 200 nM; construct: GST-full length.
T1 sequence: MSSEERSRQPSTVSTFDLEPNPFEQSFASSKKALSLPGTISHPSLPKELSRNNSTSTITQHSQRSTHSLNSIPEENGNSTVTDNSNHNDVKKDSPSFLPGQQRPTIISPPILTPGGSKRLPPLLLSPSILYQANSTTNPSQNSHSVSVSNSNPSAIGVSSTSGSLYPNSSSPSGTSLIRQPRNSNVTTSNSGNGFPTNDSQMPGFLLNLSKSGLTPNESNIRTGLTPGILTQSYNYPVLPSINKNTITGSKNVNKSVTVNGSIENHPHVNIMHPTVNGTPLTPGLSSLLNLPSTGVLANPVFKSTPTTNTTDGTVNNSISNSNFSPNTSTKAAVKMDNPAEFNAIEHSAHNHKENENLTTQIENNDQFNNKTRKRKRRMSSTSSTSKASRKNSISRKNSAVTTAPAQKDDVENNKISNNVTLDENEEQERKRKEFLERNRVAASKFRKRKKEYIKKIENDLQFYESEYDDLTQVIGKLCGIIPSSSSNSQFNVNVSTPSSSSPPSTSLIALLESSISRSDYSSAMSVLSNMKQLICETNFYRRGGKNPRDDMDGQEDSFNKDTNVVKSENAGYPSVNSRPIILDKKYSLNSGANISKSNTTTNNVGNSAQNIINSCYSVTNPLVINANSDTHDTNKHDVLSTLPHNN
Experimental: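 Universal 'all 10-mer' protein binding microarrays (Agilent AMADID 015681) probed with GST-tagged S. cerevisiae TFs (full-length or DBD) made by in vitro transcription/translation (PURExpress), about 100-200 nM. Bound TF was detected with fluorescent anti-GST. Each ungapped 8-mer (which stands for itself and its reverse complement) is scored by the PBM enrichment score (E-score), a modified Wilcoxon-Mann-Whitney statistic from -0.5 to +0.5, computed with the Universal PBM Analysis Suite. Scale: above 0.35 generally sequence-specific binding.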

Sequence	PBM E-score
AAACATCA	0.189
GGGTCTAC	-0.00528
GGTCAGGA	-0.245
CTGTTAGA	-0.0627
GGATAGCA	-0.0249
CTTCCTAC	-0.225
CTAACTTA	0.00938
ATAGTGTG	0.0884
GAACCAGC	-0.152
GCACCTGC	-0.202
CACGGATC	-0.1
ACCTAAAT	0.151
ATCGCAGA	-0.0496
ACTAAGCG	-0.0198
ACCCTAAC	0.0777
GTGAGTGA	0.0585
GACTACAC	0.0778
ATCGTTTG	0.0556
AATGATAG	0.233
GCCAAAGC	-0.285
TACCGACA	0.0623
AAATGGTC	-0.0521
AAAGCCAT	0.0868
CGCATTCC	-0.316
ATCTCAGC	-0.0484

Sequence	PBM E-score
AACATCAG	0.125
CACGGCAA	-0.0387
CACAGGGC	-0.0729
CGTGCCCA	-0.0412
TACGGAAA	0.1
ACGACACT	0.182
AGCCCATC	-0.212
ACAGTCGC	-0.127
CCGACCAA	-0.15
GGGCAGCA	-0.276
AGGCTCGA	0.0161
CCACTCTC	-0.23
CTGTCGAC	-0.0259
GTTAATAA	0.189
GCAAGACA	-0.105
TGGCCCAA	-0.0707
CCACGGCG	-0.0828
CCGGTGGA	-0.297
ACGAGTGG	-0.164
AGTGATTG	-0.0807
ATTCTAGA	0.0481
ACGTCGTA	0.399
AAGGTAGG	-0.0031
AAACACTG	0.0659
AACGGTCT	-0.2

Sequence	PBM E-score
GGACGCCC	-0.382
CAGGTCAA	-0.151
TGGTGAAA	0.0222
GAGGAAAA	-0.077
CGATCATA	0.202
CCAGGTCG	-0.248
TAAAACCA	0.0242
ATCTGCGC	-0.0753
ACGCGCTA	0.284
GCATGCAA	-0.00617
CAGGCAAG	-0.0994
CTTCAGTA	0.113
CTGCAGCA	-0.155
CGCCGCCC	-0.187
ATCCCACA	-0.194
ATTCAGCC	-0.0566
ACGGGGTC	-0.332
ACGGCGCA	-0.0201
CGAAAGAC	0.0404
GGTGTAAC	0.0191
ACATGAGG	-0.0474
CATTAGTC	-0.139
ACCGTTGG	-0.126
CTTTTACA	0.249
GCAGGCCA	-0.188

Sequence	PBM E-score
AGGGTCTA	0.0287
GAATATGA	0.192
CCCAAACG	-0.0802
GAAAGAGC	0.0403
CCCACGGC	-0.145
ATGCACGG	-0.154
CGCTTCAG	-0.113
GCACCTCA	0.0472
CATCTTAA	0.191
AAATGACG	0.481
CGAGGTAG	-0.329
AACCTGAG	0.0301
CTCAACGC	-0.145
AGTGCATC	0.093
ACAACCCA	0.0415
AAGGCGGA	-0.0927
CGTCGACG	0.0714
GTAGTTGA	0.173
AAGGGAGG	-0.244
ACGTTATA	0.426
CATGCGGA	-0.0617
CCAGGATA	0.0428
ACACACAG	-0.0108
AGTGCACC	-0.0677
GTCTACTA	0.108

Sequence	PBM E-score
ACAACGGC	-0.193
ATGATGAG	0.275
CGCACCCA	0.0218
CAGCACGC	-0.0149
ACCCTCGC	-0.172
CATGAGAG	0.0936
ATACAATA	0.153
GTGGATCA	-0.15
AGGCGTTG	-0.017
ACACCTCC	-0.195
CTGATGAC	0.318
ACCAATCT	-0.0508
GCGGATGA	0.0872
AAGCAACT	0.0356
CTATCGCC	-0.13
AACCTCCC	-0.154
CGGTGATA	0.00538
GGAATTTA	0.154
CAGATTCC	-0.248
CCGTTAGC	-0.15
CGCTAATC	-0.0615
AAAAAACG	0.244
AAATCGTG	0.248
TACCGCGA	0.161
GTGAAAGA	0.187

Sequence	PBM E-score
CTGACCTC	-0.296
AGTAGTTG	-0.0764
CACCTCAC	-0.0158
ATCAGAAG	-0.0145
AGGCAGCG	-0.253
GCCGGACC	-0.115
CTTGTATC	-0.0193
TGAGTGAA	-0.179
GATGTCCA	0.162
CAAGGAAG	-0.196
GAGATACC	-0.039
GTAGGGCA	-0.0329
ATCCCTTG	-0.149
GCTGTAAC	-0.0515
AATCACCC	-0.0732
AGAGGGGC	-0.257
AAAGATAC	0.215
ACCGCCTC	-0.312
AAGGTCGC	-0.219
ACAGATCT	-0.0706
CTATTCAG	-0.0536
AAGGCAAC	-0.0193
CAGATTTA	-0.00359
ACGGGACA	-0.265
AAGATCCT	-0.0622

Sequence	PBM E-score
GCCCAAGA	-0.164
AATTGAGG	-0.0812
ATATATCA	0.133
ACCAAACT	0.042
ACCATGAA	-0.0406
GTGCATAA	0.0663
GTGGTCCA	-0.0431
CGGGCGCC	-0.112
ATGCCAGA	-0.0478
AGTTGGCC	-0.245
GCTTCCAC	-0.147
CATTCAAC	0.0545
ATTAGATG	0.287
TTAAAGAA	0.0838
TAAGGGAA	0.108
CATCCGGC	-0.35
CCTCGGCC	-0.306
ACACCCAC	0.0936
CGTTATAC	0.321
AGTAACTA	0.146
CAAATAAG	-0.106
TCACTAGA	0.114
